The supplement of paper PMC11417369
± gives the standard deviation of the averaged measurements. The list shows a part of the results.

System: PfAP2-I AP2 domain 3 (GST-tagged)
Assay: gcPBM binding intensity (ln(normalized median fluorescence intensity)); higher = stronger DNA binding
In short: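 GST-fused DNA-binding domains of P. falciparum, expressed in E. coli, were applied at about 25 μg on average for 1 h to an Agilent 4 × 180k array of primer-extended double-stranded 36-bp intergenic genomic probes and negative controls. Binding intensity is the highest Masliner-normalised natural-log median intensity across replicate spots of either probe orientation, measured with Alexa488 anti-GST antibody and a 488 nm scan.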

Sequence	gcPBM binding intensity (ln)
TACGTTATGTTGAATAGTACAATTTGGTGAACAGGT [XGTACX_site1729]	8.26 ± 0.61
TCATTTTATTATTCTACACACTTATCTATAATTACA [CACACA_site6168]	8.21 ± 0.45
TTACATGTACAAAAGTTGCACTTCATACACTTTTAT	8.85 ± 0.42
ATTCTATATATGTGCACACAAAAGATATATATATAT [CACACA_site2124]	10.3 ± 0.18
CGAAGGTTTGGCCATGCATGTTATAAGAATATATGT [TGCATGCA_site441]	7.65 ± 0.79
TCATTTCAATACACAAGTACGTATATGGTTATATTG [XGTACX_site6021]	7.71 ± 0.45
AATATAAAATAATGCACACATAAACAAAAAATCAAA [CACACA_site1371]	10.9 ± 0.88
TATCTTTTTACAATAGTGCATATGTTATCATTAATA [GTGCAC_site9489]	9.54 ± 0.18
TTTATTTATTAATACACACACACACCCAGACAAAAT [CACACA_site4292]	8.77 ± 0.13
AGATATATAAATATTACACACTATATATCTATTTAT [CACACA_site6466]	7.83 ± 0.6
ATTTGCCCATTTAATTAACACACAAATGTTTATATT [CACACA_site8145]	8.24 ± 0.61
TTTCTTTTTTGATGCGTGCACATTTGTTTATTTTTC [GTGCAC_site9792]	9.63 ± 0.65
ACTATTTAATATAGGGTGCAACTTTTTCAAGTAAAT [GTGCAC_site9853]	9.24 ± 0.52
GTATGCATTATATACACACATACATTTATATATTCT [CACACA_site115]	8.23 ± 0.63
AGTAATAAAAGTAGAAGTACAATACTTCAAAGATAT [XGTACX_site8562]	8.02 ± 0.42
GTTCTAAAAGTTAATGCATGTTATAAGTTTCCCTCT [TGCATGCA_site94]	8.18 ± 0.93
TATTTCAAAATATGGGTGCAGTTCTTCATGATATAT [GTGCAC_site9658]	9.93 ± 0.16
TGCTATTTTTTCCTTTTTTTGTATCACAATCATATA [CACACA_negctrl_site1576]	7.78 ± 0.52
TTATACTTTGGGTGGTGTACTATATTATGCTTATAA [XGTACX_site1106]	8.81 ± 0.38

Sequence	gcPBM binding intensity (ln)
ATGTATATATTTACGTGTACATATTCATGTGATATC [XGTACX_site5871]	7.8 ± 0.49
ATTAAACATAAATATGCACACATATACATATATTCA [CACACA_site8850]	8.8 ± 0.085
TGTGTTCATATATGCACACGCATATATATTATTGTT [CACACA_site3822]	9.1 ± 0.25
TGTGTCCATTGAACAGTGCAATAAAAACTTTTACAT	11.2 ± 0.59
ATAAATATGGAGCACACACACATAAACATACATATA [CACACA_site421]	8.27 ± 0.32
ATTTTTATTCTTATTACACACCTAAATATAAAATAT [CACACA_site2064]	8.34 ± 0.63
TTTATATTTATATTGGGTACATAAAAAGCTTGAAAT [XGTACX_site8248]	7.95 ± 0.35
AAAAAAAAAAAACACACACACACACCGATACATACA [CACACA_site8849]	7.92 ± 0.45
TTTTTTTTTTTGTGGTGTACCTTTATTTCCTTTTAG [XGTACX_site6934]	8.29 ± 0.76
AAAGGGGAAAATATTATACATATAATAAATCCGTAT [XGTACX_negctrl_site355]	7.46 ± 0.77
ATTCATTTTATTTTTTCACACACACCGATATATATA [CACACA_site9097]	8.1 ± 0.56
ATTTTTCAATTATGTAGTACATTGATATTTTCATTT [XGTACX_site5369]	7.78 ± 0.47
ACCCCCATATTCTTTTTACACACTTGAATAAAAAAT [CACACA_site8319]	8.8 ± 0.29
CAAATACACGGACACACACACACAAAAAAAAAAAAA [CACACA_site6385]	8.36 ± 0.014
AAATTATTGTAAAATAGTACAGTGAAACATAAAGTT [XGTACX_site589]	8.12 ± 0.52
TTTATTTGGACATATACACACTTAAATATGTTTATT [CACACA_site6021]	7.59 ± 0.47
TTTATTTTGTTTTCTTGTACATAAATAATTACATAT [XGTACX_site4227]	7.87 ± 0.67
TAAATACAAGTAAAAAGTACAGAAAAATTATATATA [XGTACX_site1758]	7.58 ± 0.47
TGATTCACTATAGTAGTGCATATTATATATATATAT [GTGCAC_site9975]	10.3 ± 0.25

Sequence	gcPBM binding intensity (ln)
TATAATAATTCATAATGTACTTTTATCAAAAAAGTA [XGTACX_site6868]	7.57 ± 0.32
AAGAGAAATGGGCACACACACACATATTATAGATAT [CACACA_site6828]	7.95 ± 0.63
TATAAAAAATTCAATACACACCATATATAAATATAT [CACACA_site6060]	7.55 ± 0.4
AAAAAAAAATATATATATATATATATATAATAAAAA [CACACA_negctrl_site639]	7.92 ± 0.46
ATTTATGTTATTGTATGTACACAATATAATGTTATT [XGTACX_site5657]	7.82 ± 0.39
ATTCTACACGCACATACACACATATAAATATAAATA [CACACA_site7582]	8.7 ± 0.24
ACACAAAAATAGTTTTTTATATTGTTAACCTTATAT [XGTACX_negctrl_site123]	7.75 ± 0.66
ATAATATATATGAAATGTACATAAATTTAATGCGAC [XGTACX_site5394]	8.38 ± 0.35
ATATTTTACATATTTGCACACATATATTTAAATACA [CACACA_site4628]	9.73 ± 0.28
AAAAAAAAAAAATGTGCACACGCGTACAGACAAAAA [CACACA_site2005]	9.53 ± 0.13
TAAAAAGTACATTATTCATGGCCTATTACATTTTTT [GTGCAC_negctrl_site282]	7.88 ± 0.4
ATGTGCACATGTAGAAGTACTTTTTCTTAAAATACT [XGTACX_site8341]	9.045 ± 0.049
TATGTTTTATATAAGATGCACTTTTGTTATGCTTCA	8.85 ± 0.3
TAAAATAGAAATATATGTACATATATATATGTATAT [XGTACX_site4134]	7.74 ± 0.37
ATTTATATTTTTTAATGTACATTTATATGTATACAA [XGTACX_site4555]	7.87 ± 0.57
CGATATTCTAAGGATAGTACATAATAAAATAGAGTA [XGTACX_site4224]	7.68 ± 0.57
AAAAAACGCACTCGTACACACATATTTTCTTTCTAA [CACACA_site3089]	9.31 ± 0.12
AATATTTACCAGAAAATAAAAATATGTATATATATA [CACACA_negctrl_site351]	8.81 ± 0.28
TTAATTACACAAAAAAGTACTTGATATTGTTTATTA [XGTACX_site3449]	7.59 ± 0.38
